Screen size: about 46,000 compounds; about 60 (0.1%) were called active. Not shown: some 3% with an inconclusive outcome. Calls come from the whole dose curve; as a rule, active = well fitted inhibition curve with a large enough effect; inconclusive = small, poorly fitted or top-dose-only effect; inactive = no such curve, though single readings can be large or run the other way. The list shows a part of the results.
assay: Primary qHTS assay for Inhibitors of ovarian cancer metastasis using an organotypic tumor microenvironment (TME) model.; note: nearly all actives have a fitted effect of over 65% in size;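 for activity change, negative = inhibition: plate controls were DMSO wells for no effect and tomatine positive control wells for full effect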; settings: SKOV3ip1-GFP adhesion/invasion on 3D omental model, fluorescence; series mostly up to 45.8 µM; activity change, negative = inhibition: at the top concentration
How it was run: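 qHTS, 4-pt dose (0.36-46 umol/L); SKOV3ip1-GFP, 1,200 cells/well, no FBS; primary omental fibroblast/mesothelial co-culture 48 h pre-grown; 2 h RT + 16 h 37 C; PBS wash, 4% PFA; GFP count 488/509 nm.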

Compound | activity change, negative = inhibition | outcome
COc1ccccc1Cc1nc2ccccc2nc1SCC(=O)Nc1c(C)cccc1C | inactive: -14.8% | 
COc1ccc(NC(=O)c2cc(-c3ccc(F)cc3)no2)cc1OC | inactive: -9.44% | 
Cc1c(Cl)cccc1NC(=O)Cn1c(=O)cc(C)c2c(C)nn(-c3cccc(F)c3)c21 | inactive: 5.92% | 
COc1ccc(N(CC(C)C)S(=O)(=O)c2nnc(NC(=O)c3ccco3)s2)cc1 | inactive: -13.9% | 
O=C(Cn1ncn2cccc2c1=O)NCc1cccc(Br)c1 | inactive: 8.58% | 
CN(C)CCN(Cc1ccccc1)S(=O)(=O)c1csc(C(N)=O)c1 |  | inactive
CCN(C(=O)CCS(=O)(=O)c1cc2c(cc1C)NC(=O)CO2)c1cccc(C)c1 | inactive: -6.26% | 
CCn1c(C)c(C)c2cc(C(=O)N3CCN(c4ccccc4)CC3)ccc21 |  | inactive
CCCNC(=O)Cn1nc(-c2ccc(C)cc2)c2cnc3ccc(CC)cc3c21 | inactive: -3.28% | 
Cc1cc(NC(=O)c2ccco2)cc(-c2nc3ccccc3o2)c1O | inactive: -5.09% | 
Cc1cccc(N2CCN(Cc3nnc(-c4cccc(Br)c4)o3)CC2)c1C | inactive: 1.02% | 
CCCn1cnc2cc(NC(=O)c3cc(OC)c(OC)c(OC)c3)ccc21 |  | inactive
COc1ccc(CCNC(=O)c2ccc3c(c2)nc2n3CCCCC2)cc1OC |  | inactive
CCc1ccc(-c2nc(CS(=O)CC(=O)NCc3ccc(F)cc3)c(C)o2)cc1 (configuration not stated) | inactive: -15.6% | 
Cc1ccc(CNS(=O)(=O)c2c(C)nc3sc(C)cn3c2=O)cc1 | inactive: -11.8% | 
Cc1ccc(Cl)cc1NC(=O)CN1C(=O)c2ccccc2Sc2ncccc21 | inactive: -1.99% | 
COc1ccccc1NC(=O)Cn1c(=O)oc2cc(S(=O)(=O)NCc3ccccc3)ccc21 | inactive: 2.55% | 
Clc1ccc2nc(-c3ccc(N4CCOCC4)cc3)c(Nc3ccccc3)n2c1 | inactive: -1.22% | 
O=C(NCc1cccc(Cl)c1)C1CCCN(c2nn3cc(-c4ccc(F)cc4)nc3s2)C1 (configuration not stated) | inactive: 7.62% | 
CC(=O)c1ccc(NC(=O)c2nc(-c3ccccc3)n(-c3ccc(C)cc3)n2)cc1 | inactive: 0.955% | 
CCCOC(=O)c1cccc(NC(=O)CSc2nnc3cc(C)c4ccccc4n23)c1 | inactive: -4.3% | 
CC1CCc2c(sc3nnn(Cc4ccccc4Cl)c(=O)c23)C1 (configuration not stated) | inactive: -2.52% | 
CCOc1ccc(S(=O)(=O)c2cc3cccc(OCC)c3oc2=O)cc1 | inactive: 6.27% | 
CCOc1ccc(CNc2cc(C)nc3nc(-c4cccc(C)c4)nn23)cc1OC | inactive: 13.5% | 

Compound | activity change, negative = inhibition | outcome
Cc1cccc(NC(=O)c2ccc3oc(=O)c(S(=O)(=O)c4ccc(F)cc4)cc3c2)c1C | inactive: 2.82% | 
CCc1ccccc1N(C)C(=O)c1nn(-c2ccc(OC)cc2)c(=O)c2c1c1ccccc1n2C | inactive: -6.05% | 
COc1ccc(N2CCN(C(=O)c3cnc(N4CCOCC4)c4ccccc34)CC2)cc1 | inactive: -2.83% | 
Cc1ccc(NCc2cc3cc4c(cc3n(CC(=O)Nc3ccc(C)cc3)c2=O)OCCO4)cc1 | inactive: -12% | 
CCOc1ccccc1NCc1nnc2n1CCCCC2 | inactive: -14.5% | 
Cc1ccc(-c2nnc3c4ccccc4c(-c4ccccc4)nn23)cc1 |  | inactive
CC(C)NC(=O)CSc1cn(CC(=O)N2CCCCCC2)c2ccccc12 | inactive: -21.2% | 
CCCCn1c(SCC(=O)c2ccccc2)nc2sc3c(c2c1=O)CCCC3 | inactive: 1.04% | 
CCOc1ccccc1C1C(C(=O)Nc2ccccc2)=C(C)Nc2nc(-c3ccccc3)nn21 (configuration not stated) |  | inactive
COc1ccccc1OCc1nc2ccccc2n1Cc1ccccc1 | inactive: 3.57% | 
CC1CCC(NC(=O)c2ccc3c(c2)N(Cc2ccccc2F)C(=O)c2ccccc2S3(=O)=O)CC1 (configuration not stated) |  | inactive
Cc1ccc(S(=O)(=O)Nc2ccc(-c3ccc(N4CCCCCC4)nn3)cc2)c(C)c1 | inactive: -0.939% | 
CCOc1ccccc1CNCc1c(C(=O)O)n(Cc2ccccc2)c2cc(OC)ccc12 |  | inactive
CCOC(=O)c1cc(C)n(CC2CCC(C(=O)Nc3cccc(C(C)=O)c3)CC2)c1C (configuration not stated) |  | inactive
Cc1ccc(C)c(S(=O)(=O)c2nnn3c2nc(NC2CCCC2)c2sccc23)c1 | inactive: 2.17% | 
COc1ccc(C)cc1NC(=O)c1nnn(CC(=O)Nc2c(C)cccc2C)c1N | inactive: -8.07% | 
Cc1cccc(C)c1NC(=O)C(=O)NCC(c1ccc2c(c1)OCO2)N1CCN(C)CC1 (configuration not stated) | inactive: -3.95% | 
COc1ccc(OC)c([C@@H]2Nc3ccc(C(=O)O)cc3[C@@H]3C=CC[C@@H]32)c1 | inactive: 3.03% | 
CCOc1c(CNCCSc2nnnn2C)cccc1OC |  | inactive
CSc1nnc(NC(=O)c2cc(=O)c3cc(C)c(C)cc3o2)s1 | inactive: 10.1% | 
Cc1ccc(S(=O)(=O)c2cn(Cc3ccccc3)c3cc(N4CCCC4)c(F)cc3c2=O)c(C)c1 | inactive: 27.4% | 
COc1ccc(CNC(=O)C(CC(C)C)NS(=O)(=O)c2ccc3c(c2)oc(=O)n3C)cc1 (configuration not stated) | inactive: 2.9% | 
CCc1cccc(NC(=O)c2cc3c(=O)oc4ccc(C)cc4c3s2)c1 |  | inactive

From PubChem BioAssay AID1963576 (National Center for Advancing Translational Sciences (NCATS), 2024)
